# No constants are given. Whether binding was seen depends on the method and setting. Binding seen in cells or lysates may run through a third protein. Some results given as binding are weak or reduced against the parent protein; the word gives no strength. Sequences can lack the tags named with a protein.
# Protein sequences, listed by entry. Tags and fused reporters are not part of them. Residues count along the entry.
# UniProt Q07157: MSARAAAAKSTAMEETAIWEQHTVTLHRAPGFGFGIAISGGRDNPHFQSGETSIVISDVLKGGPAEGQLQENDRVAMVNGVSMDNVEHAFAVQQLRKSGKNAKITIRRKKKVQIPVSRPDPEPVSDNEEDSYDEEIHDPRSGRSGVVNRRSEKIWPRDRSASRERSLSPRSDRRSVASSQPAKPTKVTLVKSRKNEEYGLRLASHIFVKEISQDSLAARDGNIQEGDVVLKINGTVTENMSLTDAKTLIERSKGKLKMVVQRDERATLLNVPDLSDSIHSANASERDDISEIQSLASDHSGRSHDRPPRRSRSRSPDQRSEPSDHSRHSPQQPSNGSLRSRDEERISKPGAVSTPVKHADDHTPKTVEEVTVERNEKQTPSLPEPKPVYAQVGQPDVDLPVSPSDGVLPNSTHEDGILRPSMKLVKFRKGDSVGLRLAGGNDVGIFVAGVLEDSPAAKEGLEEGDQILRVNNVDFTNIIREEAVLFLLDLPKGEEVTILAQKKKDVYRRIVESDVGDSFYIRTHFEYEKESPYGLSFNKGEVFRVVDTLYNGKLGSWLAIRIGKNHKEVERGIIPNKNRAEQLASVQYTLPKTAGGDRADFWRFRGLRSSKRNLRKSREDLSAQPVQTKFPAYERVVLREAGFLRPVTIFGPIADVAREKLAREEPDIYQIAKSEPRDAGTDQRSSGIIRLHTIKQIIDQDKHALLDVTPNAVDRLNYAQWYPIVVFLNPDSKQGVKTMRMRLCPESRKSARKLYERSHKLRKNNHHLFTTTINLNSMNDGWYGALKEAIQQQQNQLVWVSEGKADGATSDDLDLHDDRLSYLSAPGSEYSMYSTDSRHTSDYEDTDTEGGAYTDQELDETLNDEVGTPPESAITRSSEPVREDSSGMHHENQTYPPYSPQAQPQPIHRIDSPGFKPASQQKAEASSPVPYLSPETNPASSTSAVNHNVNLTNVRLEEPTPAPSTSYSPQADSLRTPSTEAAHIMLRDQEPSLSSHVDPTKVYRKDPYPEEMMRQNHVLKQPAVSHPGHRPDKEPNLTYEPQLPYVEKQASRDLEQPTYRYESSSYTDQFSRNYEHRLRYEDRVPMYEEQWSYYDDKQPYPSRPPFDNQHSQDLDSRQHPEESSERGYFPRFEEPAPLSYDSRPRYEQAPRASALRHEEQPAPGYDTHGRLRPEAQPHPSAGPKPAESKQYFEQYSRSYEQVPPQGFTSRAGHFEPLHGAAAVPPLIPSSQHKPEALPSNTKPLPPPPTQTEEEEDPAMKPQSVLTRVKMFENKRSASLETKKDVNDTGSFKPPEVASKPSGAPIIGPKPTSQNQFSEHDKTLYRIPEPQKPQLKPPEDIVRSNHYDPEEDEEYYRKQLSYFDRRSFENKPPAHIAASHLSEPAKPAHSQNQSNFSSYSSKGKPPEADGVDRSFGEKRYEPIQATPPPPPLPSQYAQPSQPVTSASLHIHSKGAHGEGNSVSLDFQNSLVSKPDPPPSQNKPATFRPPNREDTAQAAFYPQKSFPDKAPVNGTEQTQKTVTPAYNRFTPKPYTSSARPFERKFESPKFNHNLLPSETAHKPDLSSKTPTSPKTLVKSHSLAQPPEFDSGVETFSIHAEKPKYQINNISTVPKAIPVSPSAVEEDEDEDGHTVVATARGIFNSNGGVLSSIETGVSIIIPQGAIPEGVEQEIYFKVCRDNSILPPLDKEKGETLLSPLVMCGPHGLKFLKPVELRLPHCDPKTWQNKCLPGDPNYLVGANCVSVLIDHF
# UniProt P35222: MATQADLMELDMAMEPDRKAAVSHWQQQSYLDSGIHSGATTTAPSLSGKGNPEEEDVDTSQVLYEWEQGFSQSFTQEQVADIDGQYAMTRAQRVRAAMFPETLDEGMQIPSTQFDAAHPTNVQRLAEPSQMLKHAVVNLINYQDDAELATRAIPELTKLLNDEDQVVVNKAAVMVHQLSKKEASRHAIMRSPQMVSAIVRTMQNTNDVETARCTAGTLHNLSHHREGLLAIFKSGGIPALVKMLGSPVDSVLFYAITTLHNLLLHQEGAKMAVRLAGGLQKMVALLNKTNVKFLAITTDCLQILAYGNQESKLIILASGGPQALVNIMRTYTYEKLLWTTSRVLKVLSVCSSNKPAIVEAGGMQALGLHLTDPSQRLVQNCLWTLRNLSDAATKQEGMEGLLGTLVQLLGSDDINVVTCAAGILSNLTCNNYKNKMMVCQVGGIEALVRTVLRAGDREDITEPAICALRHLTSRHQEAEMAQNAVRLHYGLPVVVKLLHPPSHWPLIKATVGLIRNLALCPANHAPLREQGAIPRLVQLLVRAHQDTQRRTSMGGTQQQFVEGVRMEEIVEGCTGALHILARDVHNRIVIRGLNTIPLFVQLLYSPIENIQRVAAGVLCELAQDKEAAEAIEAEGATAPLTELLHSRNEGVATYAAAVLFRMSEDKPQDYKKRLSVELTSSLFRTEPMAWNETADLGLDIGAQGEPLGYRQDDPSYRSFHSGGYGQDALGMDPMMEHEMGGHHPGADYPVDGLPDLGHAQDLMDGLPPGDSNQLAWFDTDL
# UniProt P16144, residues 28-1822: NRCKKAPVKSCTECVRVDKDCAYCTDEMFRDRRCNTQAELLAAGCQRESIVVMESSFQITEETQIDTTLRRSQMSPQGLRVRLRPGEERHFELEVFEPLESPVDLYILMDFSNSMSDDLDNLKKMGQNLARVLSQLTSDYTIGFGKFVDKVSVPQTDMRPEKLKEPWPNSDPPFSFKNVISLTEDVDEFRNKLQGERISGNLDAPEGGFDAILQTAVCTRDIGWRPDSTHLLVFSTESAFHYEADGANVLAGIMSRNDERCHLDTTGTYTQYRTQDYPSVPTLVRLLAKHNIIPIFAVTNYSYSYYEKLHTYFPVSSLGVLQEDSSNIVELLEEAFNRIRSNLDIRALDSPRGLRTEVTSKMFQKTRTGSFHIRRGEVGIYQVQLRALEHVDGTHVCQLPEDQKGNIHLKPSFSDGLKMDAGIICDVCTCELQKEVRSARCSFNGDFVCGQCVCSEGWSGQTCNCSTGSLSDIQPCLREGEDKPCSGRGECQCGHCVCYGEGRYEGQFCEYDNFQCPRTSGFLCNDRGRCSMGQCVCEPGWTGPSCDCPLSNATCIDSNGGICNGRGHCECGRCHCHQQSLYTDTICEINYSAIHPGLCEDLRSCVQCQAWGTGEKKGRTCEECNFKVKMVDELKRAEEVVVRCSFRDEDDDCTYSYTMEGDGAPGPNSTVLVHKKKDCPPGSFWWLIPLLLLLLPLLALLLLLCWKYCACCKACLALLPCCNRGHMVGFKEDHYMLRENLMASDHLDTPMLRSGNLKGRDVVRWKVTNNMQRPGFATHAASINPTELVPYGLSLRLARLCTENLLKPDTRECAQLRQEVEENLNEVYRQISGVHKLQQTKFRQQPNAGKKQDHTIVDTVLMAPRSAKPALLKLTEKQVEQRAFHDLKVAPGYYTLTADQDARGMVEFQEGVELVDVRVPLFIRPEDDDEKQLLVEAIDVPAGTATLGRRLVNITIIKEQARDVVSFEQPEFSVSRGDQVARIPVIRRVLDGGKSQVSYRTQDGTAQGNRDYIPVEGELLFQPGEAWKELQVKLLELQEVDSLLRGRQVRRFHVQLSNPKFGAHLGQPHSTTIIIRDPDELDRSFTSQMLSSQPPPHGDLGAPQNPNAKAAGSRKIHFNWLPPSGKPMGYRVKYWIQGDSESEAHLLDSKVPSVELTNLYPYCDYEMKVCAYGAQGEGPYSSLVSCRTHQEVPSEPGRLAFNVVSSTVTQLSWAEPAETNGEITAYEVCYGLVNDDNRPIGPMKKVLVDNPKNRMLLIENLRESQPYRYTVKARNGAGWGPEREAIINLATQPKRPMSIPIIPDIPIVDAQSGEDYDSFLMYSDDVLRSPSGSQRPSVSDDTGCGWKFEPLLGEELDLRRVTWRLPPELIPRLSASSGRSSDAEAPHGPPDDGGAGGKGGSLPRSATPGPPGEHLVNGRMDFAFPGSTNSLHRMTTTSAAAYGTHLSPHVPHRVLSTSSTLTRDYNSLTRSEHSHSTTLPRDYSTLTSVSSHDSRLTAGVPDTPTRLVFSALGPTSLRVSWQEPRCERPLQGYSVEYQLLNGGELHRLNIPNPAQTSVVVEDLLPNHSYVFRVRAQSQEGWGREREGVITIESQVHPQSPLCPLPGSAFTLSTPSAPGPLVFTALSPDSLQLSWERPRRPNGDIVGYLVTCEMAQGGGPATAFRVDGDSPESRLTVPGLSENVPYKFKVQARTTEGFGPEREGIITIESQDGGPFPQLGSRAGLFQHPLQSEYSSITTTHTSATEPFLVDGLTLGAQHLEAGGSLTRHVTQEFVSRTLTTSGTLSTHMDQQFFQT
# UniProt Q86T03: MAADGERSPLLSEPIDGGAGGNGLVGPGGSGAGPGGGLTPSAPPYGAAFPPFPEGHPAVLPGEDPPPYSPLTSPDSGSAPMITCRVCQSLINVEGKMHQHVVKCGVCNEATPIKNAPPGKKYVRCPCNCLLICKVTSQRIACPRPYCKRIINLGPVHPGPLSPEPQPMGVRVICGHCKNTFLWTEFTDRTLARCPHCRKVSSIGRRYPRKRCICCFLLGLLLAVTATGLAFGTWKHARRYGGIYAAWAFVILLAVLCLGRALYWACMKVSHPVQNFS
# B1: CLCA2 with a FLAG tag, stably expressed in HEK293 (protein, UniProt Q9UQC9 32-943)
# chain: GVQLQDNGYNGLLIAINPQVPENQNLISNIKEMITEASFYLFNATKRRVFFRNIKILIPATWKANNNSKIKQESYEKANVIVTDWYGAHGDDPYTLQYRGCGKEGKYIHFTPNFLLNDNLTAGYGSRGRVFVHEWAHLRWGVFDEYNNDKPFYINGQNQIKVTRCSSDITGIFVCEKGPCPQENCIISKLFKEGCTFIYNSTQNATASIMFMQSLSSVVEFCNASTHNQEAPNLQNQMCSLRSAWDVITDSADFHHSFPMNGTELPPPPTFSLVQAGDKVVCLVLDVSSKMAEADRLLQLQQAAEFYLMQIVEIHTFVGIASFDSKGEIRAQLHQINSNDDRKLLVSYLPTTVSAKTDISICSGLKKGFEVVEKLNGKAYGSVMILVTSGDDKLLGNCLPTVLSSGSTIHSIALGSSAAPNLEELSRLTGGLKFFVPDISNSNSMIDAFSRISSGTGDIFQQHIQLESTGENVKPHHQLKNTVTVDNTVGNDTMFLVTWQASGPPEIILFDPDGRKYYTNNFITNLTFRTASLWIPGTAKPGHWTYTLNNTHHSLQALKVTVTSRASNSAVPPATVEAFVERDSLHFPHPVMIYANVKQGFYPILNATVTATVEPETGDPVTLRLLDDGAGADVIKNDGIYSRYFFSFAANGRYSLKVHVNHSPSISTPAHSIPGSHAMYVPGYTANGNIQMNAPRKSVGRNEEERKWGFSRVSSGGSFSVLGVPAGPHPDVFPPCKIIDLEAVKVEEELTLSWTAPGEDFDQGQATSYEIRMSKSLQNIQDDFNNAILVNTSKRNPQQAGIREIFTFSPQISTNGPEHQPNGETHESHRIYVAIRAMDRNSLQSAVSNIAQAPLFIPPNSDPVPARDYLILKGVLTAMGLIGIICLIIVVTHHTLSRKKRADKKENGTKLL
# B2: Epithelial V-like Antigen 1 (EVA1), FLAG-tagged (protein, UniProt O60487 27-215)
# chain: VEIYTSRVLEAVNGTDARLKCTFSSFAPVGDALTVTWNFRPLDGGPEQFVFYYHIDPFQPMSGRFKDRVSWDGNPERYDASILLWKLQFDDNGTYTCQVKNPPDVDGVIGEIRLSVVHTVRFSEIHFLALAIGSACALMIIIVIVVVLFQHYRKKRWAERAHKVVEIKSKEEERLNQEKKVSVYLEDTD
# B3: human CLCA2 (protein, UniProt Q9UQC9 32-943)
# chain: B1 chain
# What was measured:
# [1] = molecular target: T1, human CLCA2 (human) (UniProt Q9UQC9); test: co-IP; cDNAs co-transfected (HEK293T named for Fig 1); lysates immunoprecipitated and immunoblotted with antibodies to FLAG, CLCA2 (TVE20) or GFP; buffer with 0.5% NP40
# T1 sequence: B1 chain
# [2] = molecular target: ZO-1 (human (endogenous in HEK293)) (UniProt Q07157); test: co-IP; HEK293 cells stably expressing CLCA2, CLCA2 lacking the cytoplasmic tail, or EVA1 alone, grown to superconfluency; lysates immunoprecipitated and immunoblotted with antibodies to CLCA2, ZO-1 or beta catenin; endogenous ZO-1 and beta catenin
# [3] = molecular target: beta catenin (human (endogenous in HEK293)) (UniProt P35222); test: as above
# [4] = molecular target: T2, GFP fused to the CLCA2 cytoplasmic tail alone (human) (UniProt Q9UQC9); test: co-IP; cDNAs co-transfected (HEK293T named for Fig 1); lysates immunoprecipitated and immunoblotted with antibodies to FLAG, CLCA2 (TVE20) or GFP; buffer with 0.5% NP40
# T2 sequence: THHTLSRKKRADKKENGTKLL
# [5] = molecular target: integrin beta four (UniProt P16144); test: as above
# [6] = molecular target: T3, Epithelial V-like Antigen 1 (EVA1), FLAG-tagged (human) (UniProt O60487); test: as above
# T3 sequence: B2 chain
molecule,measurement,setting,value
"TMEM55b, FLAG-tagged (from UniProt Q86T03 1-277)",binding,[1],no binding
B1,binding,[2],binds
same,binding,[3],binds
B2,binding,[4],no binding
same,binding,[1],binds
same,binding,[5],no binding
B3,binding,[6],binds
"ALAIGSACALMIIIVIVVVLFQHYRK (domain or fragment, UniProt O60487 155-180) [ssGFP tagged with the EVA1 TMS]",binding,[1],binds
